# In PMC9911399, “Two distinct binding modes provide the RNA-binding protein RbFox with extraordinary sequence specificity”:
# Changes are numbered by the printed parent chain; changes in the protein carry UniProt numbers. The list shows a part of the results.
# T1: RBFOX1 RRM (Homo sapiens, UniProt Q9NWB1 109-208)
# T1 sequence: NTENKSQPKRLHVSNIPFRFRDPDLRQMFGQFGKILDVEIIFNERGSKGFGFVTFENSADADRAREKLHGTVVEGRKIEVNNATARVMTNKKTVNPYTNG
# B1: ACUAAGA (DNA:RNA)
# RNA: GGGAGACCGGAAUUCAGAUUGUCCACUAAGAUUAAAUCCCGUCGUAGCCACCA
# DNA 1: CAATCTGAATTCCGGTCTCCC
# DNA 2: TGGTGGCTACGACGGGATT
# B2: UUCAGCU (DNA:RNA)
# RNA: B1 RNA with A25U, C26U, U27C, A29G, G30C, A31U
# DNA 1: CAATCTGAATTCCGGTCTCCC
# DNA 2: TGGTGGCTACGACGGGATT
# B3: GUACCCU (DNA:RNA)
# RNA: GGGAGACCGGAAUUCAGAUUGUCCGUACCCUUUAAAUCCCGUCGUAGCCACCA
# DNA 1: CAATCTGAATTCCGGTCTCCC
# DNA 2: TGGTGGCTACGACGGGATT
# B4: AUUGUAG (DNA:RNA)
# RNA: B1 RNA with C26U, A28G, A29U, G30A, A31G
# DNA 1: CAATCTGAATTCCGGTCTCCC
# DNA 2: TGGTGGCTACGACGGGATT
# B5: UCCCGAU (DNA:RNA)
# RNA: B3 RNA with G25U, U26C, A27C, C29G, C30A
# DNA 1: CAATCTGAATTCCGGTCTCCC
# DNA 2: TGGTGGCTACGACGGGATT
# B6: CUGGGAC (DNA:RNA)
# RNA: B3 RNA with G25C, A27G, C28G, C29G, C30A, U31C
# DNA 1: CAATCTGAATTCCGGTCTCCC
# DNA 2: TGGTGGCTACGACGGGATT
# B7: CCAGAGG (DNA:RNA)
# RNA: B1 RNA with A25C, U27A, A28G, A31G
# DNA 1: CAATCTGAATTCCGGTCTCCC
# DNA 2: TGGTGGCTACGACGGGATT
# B8: GAGUCUA (DNA:RNA)
# RNA: B3 RNA with U26A, A27G, C28U, C30U, U31A
# DNA 1: CAATCTGAATTCCGGTCTCCC
# DNA 2: TGGTGGCTACGACGGGATT
# B9: CCGUACG (DNA:RNA)
# RNA: B1 RNA with A25C, U27G, A28U, G30C, A31G
# DNA 1: CAATCTGAATTCCGGTCTCCC
# DNA 2: TGGTGGCTACGACGGGATT
# B10: UCUACGC (DNA:RNA)
# RNA: B1 RNA with A25U, A29C, A31C
# DNA 1: CAATCTGAATTCCGGTCTCCC
# DNA 2: TGGTGGCTACGACGGGATT
# B11: CGACAUA (DNA:RNA)
# RNA: B1 RNA with A25C, C26G, U27A, A28C, G30U
# DNA 1: CAATCTGAATTCCGGTCTCCC
# DNA 2: TGGTGGCTACGACGGGATT
# B12: GACAAAG (DNA:RNA)
# RNA: B1 RNA with A25G, C26A, U27C, G30A, A31G
# DNA 1: CAATCTGAATTCCGGTCTCCC
# DNA 2: TGGTGGCTACGACGGGATT
# B13: AAAGAUC (DNA:RNA)
# RNA: B1 RNA with C26A, U27A, A28G, G30U, A31C
# DNA 1: CAATCTGAATTCCGGTCTCCC
# DNA 2: TGGTGGCTACGACGGGATT
# B14: GUGCGCG (DNA:RNA)
# RNA: B3 RNA with A27G, C29G, U31G
# DNA 1: CAATCTGAATTCCGGTCTCCC
# DNA 2: TGGTGGCTACGACGGGATT
# B15: GGGAGUG (DNA:RNA)
# RNA: B1 RNA with A25G, C26G, U27G, A29G, G30U, A31G
# DNA 1: CAATCTGAATTCCGGTCTCCC
# DNA 2: TGGTGGCTACGACGGGATT
# B16: AAGGCCG (DNA:RNA)
# RNA: B3 RNA with G25A, U26A, A27G, C28G, U31G
# DNA 1: CAATCTGAATTCCGGTCTCCC
# DNA 2: TGGTGGCTACGACGGGATT
# B17: AGGUACG (DNA:RNA)
# RNA: B1 RNA with C26G, U27G, A28U, G30C, A31G
# DNA 1: CAATCTGAATTCCGGTCTCCC
# DNA 2: TGGTGGCTACGACGGGATT
# B18: UCGGCGG (DNA:RNA)
# RNA: B1 RNA with A25U, U27G, A28G, A29C, A31G
# DNA 1: CAATCTGAATTCCGGTCTCCC
# DNA 2: TGGTGGCTACGACGGGATT
# B19: UAUCCAU (DNA:RNA)
# RNA: B3 RNA with G25U, U26A, A27U, C30A
# DNA 1: CAATCTGAATTCCGGTCTCCC
# DNA 2: TGGTGGCTACGACGGGATT
# B20: ACUGUUU (DNA:RNA)
# RNA: B1 RNA with A28G, A29U, G30U, A31U
# DNA 1: CAATCTGAATTCCGGTCTCCC
# DNA 2: TGGTGGCTACGACGGGATT
# Target: T1, RBFOX1 RRM
# Assay: EMSA; HiTS-Eq, 1 nM pool, 10 min; buffer printed only for the single-RNA assays: 10 mM Tris pH 7.5, 150 mM NaCl, 3.4 mM EDTA, 0.001% NP-40, 30 C
# Conditions: tags: His6 N-terminal (pET28a); label: 5' 32P
# Outline: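 These values rest on relative association constants, computed from read-count changes of each RNA species versus the control reaction and normalised to the cognate motif. Reads came from free RNA recovered by 8% native PAGE after purified RbFox RRM (wild type or mutant) at increasing concentrations was equilibrated for 10 min in 50 µL with 1 nM of a 5′-radiolabelled pool with 7 randomized nucleotides and DNA-annealed flanks.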
row,Binder,binding signal
1,B1,0.00644 KA relative to UGCAUGU
2,B2,0.0069 KA relative to UGCAUGU
3,B3,0.00296 KA relative to UGCAUGU
4,B4,0.0107 KA relative to UGCAUGU
5,B5,0.000704 KA relative to UGCAUGU
6,B6,0.00375 KA relative to UGCAUGU
7,B7,0.00932 KA relative to UGCAUGU
8,B8,0.00536 KA relative to UGCAUGU
9,B9,0.00994 KA relative to UGCAUGU
10,B10,0.00734 KA relative to UGCAUGU
11,B11,0.00163 KA relative to UGCAUGU
12,B12,0.0104 KA relative to UGCAUGU
13,B13,0.00365 KA relative to UGCAUGU
14,B14,0.0262 KA relative to UGCAUGU
15,B15,0.0333 KA relative to UGCAUGU
16,B16,0.00802 KA relative to UGCAUGU
17,B17,0.0122 KA relative to UGCAUGU
18,B18,0.0227 KA relative to UGCAUGU
19,B19,0.00534 KA relative to UGCAUGU
20,B20,0.00717 KA relative to UGCAUGU
